Assay results from paper PMC4336329 (PLoS ONE, 2015).
In all, about 310,000 compounds went through this assay and about 14,000 (4.5%) showed an effect of 50% or more. Effects have a minus sign here. Some of the results follow.

molecular target: human ether-à-go-go-related gene (hERG) potassium channel (human, UniProt Q12809); assay: primary screen, population patch clamp on CHO cells stably expressing hERG
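Also: peak tail current of the secondary pulse compared with the same well before compound.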

human ether-à-go-go-related gene (hERG) potassium channel, sequence (Q12809 whole entry, looked up): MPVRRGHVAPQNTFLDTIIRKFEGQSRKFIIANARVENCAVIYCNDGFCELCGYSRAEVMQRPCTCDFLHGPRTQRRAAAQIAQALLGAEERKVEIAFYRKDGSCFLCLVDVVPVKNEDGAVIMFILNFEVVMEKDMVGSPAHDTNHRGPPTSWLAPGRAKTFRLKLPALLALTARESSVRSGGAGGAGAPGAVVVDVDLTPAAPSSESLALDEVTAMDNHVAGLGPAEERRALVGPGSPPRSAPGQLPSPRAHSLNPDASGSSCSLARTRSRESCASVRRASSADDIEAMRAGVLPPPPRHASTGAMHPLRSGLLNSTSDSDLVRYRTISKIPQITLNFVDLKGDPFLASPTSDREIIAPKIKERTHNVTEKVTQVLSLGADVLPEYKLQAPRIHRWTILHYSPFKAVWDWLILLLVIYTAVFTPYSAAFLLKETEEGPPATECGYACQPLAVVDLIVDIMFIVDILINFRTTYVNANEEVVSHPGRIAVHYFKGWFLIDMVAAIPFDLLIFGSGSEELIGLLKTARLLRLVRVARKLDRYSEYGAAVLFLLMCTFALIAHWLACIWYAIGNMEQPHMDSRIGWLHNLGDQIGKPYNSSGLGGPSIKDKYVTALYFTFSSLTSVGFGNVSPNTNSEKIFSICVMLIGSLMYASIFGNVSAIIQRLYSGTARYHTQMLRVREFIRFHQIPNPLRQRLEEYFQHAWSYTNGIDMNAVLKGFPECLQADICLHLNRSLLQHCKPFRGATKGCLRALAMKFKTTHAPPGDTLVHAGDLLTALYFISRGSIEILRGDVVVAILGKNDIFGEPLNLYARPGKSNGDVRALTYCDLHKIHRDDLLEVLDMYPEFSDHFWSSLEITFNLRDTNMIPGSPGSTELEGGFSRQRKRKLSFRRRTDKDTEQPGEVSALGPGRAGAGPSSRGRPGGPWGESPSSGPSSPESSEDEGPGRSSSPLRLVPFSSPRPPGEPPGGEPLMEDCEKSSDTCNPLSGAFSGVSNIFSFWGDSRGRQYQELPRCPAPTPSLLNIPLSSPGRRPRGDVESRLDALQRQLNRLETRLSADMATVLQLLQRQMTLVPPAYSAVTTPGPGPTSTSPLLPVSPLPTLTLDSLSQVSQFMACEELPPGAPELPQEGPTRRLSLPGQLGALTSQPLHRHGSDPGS

SMILES	hERG current change (%, negative = inhibition) at 10uM [%]
COc1ccc(NC(=O)Nc2c(C)n(C)n(-c3ccccc3)c2=O)cc1	-18.6
Cc1c(C(C)C)c(=O)n(-c2ccc(S(=O)(=O)NC3CCCCC3)cc2)n1C	13.6
C/C(=N\Nc1nc(C(=O)O)cs1)c1ccccc1	23.2
CCn1cc(/C=C(\NC(=O)c2ccc(OC)c(OC)c2)C(=O)N2CCOCC2)c2ccccc21	-1.09
COc1nccnc1NS(=O)(=O)c1ccc(NC(=O)c2ccc(F)cc2)cc1	8.46
C[C@H](NC(=O)C1CCN(S(=O)(=O)c2ccccc2)CC1)C(=O)NCc1cccc(Cl)c1	9.42
O=C(NCCCCNC(=O)c1ccc(Br)cc1)c1ccc(Br)cc1	18.3
COc1ccc(CCNS(=O)(=O)c2c(N)n(C)c(=O)n(C)c2=O)cc1OC	13.9
COc1ccc(C(=O)Nc2ccnn2C2CCN(C3CCC3)CC2)cc1	20.7
Cc1nn(Cc2ccccc2)c(C)c1N	0.873
COc1ccc(/C=C/C(=O)Nc2ccc(NC(C)=O)cc2)cc1S(=O)(=O)N1CCOCC1	1.65
CCOc1ccc(OCCC(=O)OCC(=O)Nc2ccc3c(c2)OCO3)cc1	8.47
COc1ccccc1-n1c(=O)oc2ccc(Cl)cc2c1=O	-7.54
Cc1ccc(NC(=O)Nc2nnc(-c3ccncc3)s2)cc1C	21.7
CN1C(=O)C(C)(C)c2cc(S(=O)(=O)N3CCCC(C(=O)NCc4ccccc4Cl)C3)ccc21 (stereo not drawn)	2.18
O=P(CCl)(Nc1ccccc1)C(Cl)(Cl)Cl (stereo not drawn)	6.97
CS(=O)(=O)N(CC(=O)Nc1ccccc1C(=O)N1CCOCC1)c1ccc(Cl)cc1	-1.59
COc1ccc(NC(=O)c2cc(S(=O)(=O)N3CCc4ccccc43)cn2C)cc1	1.45
O=C(N/N=C/C=C/c1ccco1)/C(=C/c1ccccc1)NC(=O)c1ccccc1	-47
CCN(C(=O)C1CCN(S(=O)(=O)c2ccc3c(c2)oc(=O)n3C)CC1)c1cccc(C)c1	0.447
COc1ccc(-c2csc(NC(=S)NC(=O)c3ccccc3)n2)cc1Br	12
O=C(COc1ccc([N+](=O)[O-])cc1)Nc1ccc(NC(=O)c2ccccc2)cc1	19
Nc1[nH]c(=O)[nH]c(=O)c1N=Nc1cccc(Cl)c1	-26.7
CCc1cc(C(=O)c2ccc(Br)cc2)c(NC(=O)CN(CC)CC)s1	-5.19
COc1ccc(CCn2c(Br)nc3c2c(=O)[nH]c(=O)n3C)cc1	-3.69
CC1=NN(C(=O)COc2ccccc2C)C(O)(c2ccc(Cl)cc2)C1 (stereo not drawn)	4.98
COc1ccccc1C(=O)Nc1ccnn1C1CCN(CCC(C)c2ccc(C)o2)CC1 (stereo not drawn)	-80.8

SMILES	hERG current change (%, negative = inhibition) at 10uM [%]
O=C(O)C1CSC2(c3ccc4c(c3)OCCO4)CCC(=O)N12 (stereo not drawn)	11
COc1ccccc1CCNC(=O)c1cc(COc2cccc(C(F)(F)F)c2)on1	15.4
Cc1onc(-c2c(F)cccc2Cl)c1C(=O)OCC(=O)c1c(N)n(C)c(=O)n(C)c1=O	-47.3
CC(=O)N1CC2(c3ccccc3)CN(C(C)=O)CC(c3ccccc3)(C1)C2=O	3.21
CC1CN(CCC(=O)Nc2ccc3c(c2)OCO3)CC(C)O1.Cl (stereo not drawn)	1.66
C=CCN1C(=O)CN=C1Nc1cc(C)cc(C)c1.Cl	-1.52
CCOC(=O)C1=C(C)N=C(/N=C/N(C)C)SC1c1ccccc1 (stereo not drawn)	7.88
O=C(c1cccs1)N1CCN(c2nc3c(F)cc(F)cc3s2)CC1	-50.1
C=CCn1c(O)c(C(C)=NCCC(c2ccccc2)c2ccccc2)c(=O)[nH]c1=O	2.45
N=C1C(=O)OCC1c1ccccc1NC(=O)Nc1ccccc1 (stereo not drawn)	11.9
Cc1ccc(C(=O)NC(=S)Nc2ccccc2N2CCOCC2)cc1C	-5.46
CCc1n[nH]c(=S)n1/N=C/c1c(C)nn(-c2ccccc2)c1Cl	21.4
C=CCNC(=O)CSc1nc2sc(C)c(C)c2c(=O)[nH]1	20.1
C/C(=N\Nc1ccc([N+](=O)[O-])cc1)c1ccc(-n2nncc2C(C)(C)C)cc1	4.92
CC(=O)OCC1=C(C(=O)O)N2C(=O)C(NC(=O)CCn3nc(C)c(Cl)c3C)C2SC1 (stereo not drawn)	25.2
O=C(CSc1nnc(-c2ccco2)o1)Nc1ccccc1Cl	26.2
Cn1c(=O)[nH]c(NCCc2ccc(O)cc2)c([N+](=O)[O-])c1=O	14.7
CC(=O)c1ccc(NC(=O)C2CCCN(c3ncnc4c3nc3n4CCCCC3)C2)cc1 (stereo not drawn)	-24.1
O=C(Nc1ccc2ccccc2c1)c1onc2c1CCCC2	12.8
O=C(NC1CCCCCC1)C1CCN(C(=O)c2ccc(Cl)cc2)CC1	-20.4
CCOC(=O)C1=C(C)Nc2nc(C)nn2C1c1ccc(OC)c(OC)c1 (stereo not drawn)	5.99
COc1ccc(N2CC(C(=O)NCCc3ccc(OC)c(OC)c3)CC2=O)cc1 (stereo not drawn)	-0.856
NC12CCc3c(no[n+]3[O-])C1(O)CC(c1ccccc1)=[N+]2[O-] (stereo not drawn)	11.1
Cc1csc(SCC(=O)Nc2sccc2C#N)n1	-0.612
CCN(CCCNC(=O)CNC(=O)c1nn(-c2ccc(OC)cc2)c(=O)c2ccccc12)c1cccc(C)c1	-20.3
CC(=O)C1C2c3ccccc3OC1(C)N=c1s/c(=C/c3cn(C)nc3C)c(=O)n12 (stereo not drawn)	-0.454
CNC(=S)Nc1cc(C(=O)N2CCCC2)ccc1N1CCCC1	28.1
